# Source: publication PMC10668032
# The list shows a part of the results. At the low end of the ranking the order means little.
# Molecular target: SIX1 homeodomain (reference allele) (UniProt Q15475)
# Test: universal protein binding microarray
# Details: Universal all-10-mer PBM (8x60K, AMADID 030236), 300 nM GST-tagged protein, Alexa Fluor 488 anti-GST; buffer, salt, pH and temperature not stated; high values mean tight binding; most listed sequences are background and not binding sites; double strand, one strand shown
row,Sequence,binding signal
1,CCAGTCAC,-0.0359 E-score
2,ACTAACCC,-0.104 E-score
3,ACTGTCTG,-0.101 E-score
4,CCAGGCGG,-0.0885 E-score
5,AATAGCGG,-0.0273 E-score
6,CTGTTACA,-0.196 E-score
7,AAGGGCCT,-0.171 E-score
8,ATGATCAA,0.11 E-score
9,ATCTACTA,0.276 E-score
10,AGTCCAGG,-0.0505 E-score
11,ACTCACCT,-0.0548 E-score
12,TAGTCCCA,-0.151 E-score
13,CTCGGATC,0.396 E-score
14,AAATGTGC,-0.145 E-score
15,AAGCGAGA,0.0121 E-score
16,ATGTTTAG,-0.157 E-score
17,TAGTTATA,0.124 E-score
18,ATCGCTAA,0.0985 E-score
19,ACCGTACT,0.0726 E-score
20,TCCCCTCA,0.175 E-score
21,ATACTGGC,0.228 E-score
22,GACCTCGA,-0.0204 E-score

row,Sequence,binding signal
1,AACTAAAT,0.0532 E-score
2,ATGGAGCA,-0.161 E-score
3,CGGCTCGA,0.15 E-score
4,ATAGACTG,-0.0652 E-score
5,CCGAATAA,-0.00363 E-score
6,AAATAACA,0.0073 E-score
7,CCTCAGTC,-0.247 E-score
8,AGACGCTC,-0.15 E-score
9,CACCTAGA,0.122 E-score
10,ACGATTCC,-0.0224 E-score
11,AAGCGCTA,-0.11 E-score
12,AAACGGCA,-0.0389 E-score
13,CGTGTTGC,-0.0368 E-score
14,CCCGAGTA,0.279 E-score
15,ACCGCGTC,-0.194 E-score
16,GAGGTCCC,-0.153 E-score
17,GGCCTTAC,-0.194 E-score
18,CCTCAGCG,0.046 E-score
19,GCGCCACA,-0.119 E-score
20,CTTTAGGA,0.0351 E-score
21,ATGGCAAC,0.0243 E-score
22,GGCCCCCC,-0.163 E-score

row,Sequence,binding signal
1,ACTTCGAA,-0.332 E-score
2,ACACGACT,0.162 E-score
3,CATAGATG,-0.146 E-score
4,AATCGGGA,-0.079 E-score
5,GTTTACAA,-0.183 E-score
6,ATCGTGGG,0.163 E-score
7,ACAGTGAA,-0.155 E-score
8,AAACACAG,-0.0585 E-score
9,GAACCCGA,0.19 E-score
10,ATAGACAG,-0.0101 E-score
11,GACATCTC,0.0839 E-score
12,CAGGTTAC,-0.135 E-score
13,GTCCTACA,-0.025 E-score
14,AAGGTACA,-0.0469 E-score
15,GTCCGATA,0.331 E-score
16,GCGCTAGA,-0.0178 E-score
17,ATTGCACA,-0.0444 E-score
18,ACCATCAA,-0.152 E-score
19,CACGCTAA,-0.0372 E-score
20,GTCCCCTA,0.0696 E-score
21,AGGACGTG,-0.0876 E-score
22,ATGGTATG,0.0841 E-score

row,Sequence,binding signal
1,CTTCCACA,-0.311 E-score
2,CGGGGGCA,-0.229 E-score
3,TCTACGCA,-0.04 E-score
4,GGAGATCC,0.374 E-score
5,CTAATAAA,-0.04 E-score
6,GAGCATAC,-0.0182 E-score
7,AGAAGCGG,-0.0186 E-score
8,AATATGAG,0.0352 E-score
9,AGATACTG,0.342 E-score
10,AACGCTAC,-0.19 E-score
11,AAAGGAAT,-0.172 E-score
12,AGGTAGCC,-0.131 E-score
13,CTGTGGAC,0.0181 E-score
14,GCCTACAC,0.042 E-score
15,CAGACGCA,0.00388 E-score
16,GGGTAAAA,-0.0745 E-score
17,AGTAGTGG,-0.00031 E-score
18,ACCTGTAT,0.272 E-score
19,AGTAGCGA,0.1 E-score
20,CTGCTGAC,-0.0553 E-score
21,AATACCGC,0.386 E-score
22,CACGACAC,0.216 E-score

row,Sequence,binding signal
1,ATATTAGA,0.211 E-score
2,AAAGTTGG,-0.271 E-score
3,CTGATGTC,-0.0955 E-score
4,GAAATCGC,-0.166 E-score
5,CTGCCGTC,0.124 E-score
6,CGCCGTGA,-0.0546 E-score
7,CTTGAAGA,-0.316 E-score
8,CGTCAAAA,-0.263 E-score
9,ACAAGCGG,-0.152 E-score
10,CAAAAAAA,-0.169 E-score
11,GATGGTCA,-0.157 E-score
12,CCACGCGC,-0.232 E-score
13,ATAAGAGC,0.0501 E-score
14,AACCTACA,-0.0886 E-score
15,CACGATTA,0.0546 E-score
16,CTCCGTAC,-0.0967 E-score
17,GAACCGGC,-0.142 E-score
18,ACTAAGCT,-0.0652 E-score
19,AACACTAC,-0.119 E-score
20,CTAGCTCC,-0.122 E-score
21,ACTAGCTC,-0.0814 E-score
22,TGTTGAAA,-0.0615 E-score
